# From the supplement of paper PMC12217912
# This is one part of the list. The full chains were built here from the parent and the listed change. Inactive controls read about 0.05.
# B1: TEV protease; numbered along this chain (parent)
# chain: MGESLFKGPRDYNPISSSICHLTNESDGHTTSLYGIGFGPFIITNKHLFRRNNGTLVVQSLHGVFKVKDTTTLQQHLVDGRDMIIIRMPKDFPPFPQKLKFREPQREERICLVTTNFQTKSMSSMVSDTSCTFPSGDGIFWKHWIQTKDGQCGSPLVSTRDGFIVGIHSASNFTNTNNYFTSVPKNFMELLTNQEAQQWVSGWRLNADSVLWGGHKVFMVKPEEPFQPVKEATQL
# Variants of: B1
# Experiment: raw area under fraction-flipped curve 0-4 h after induction (AUC4h, not background-subtracted), DNA-recorder readout of cleavage of the substrate (dimensionless); higher = more cleavage of the substrate by the protease variant
# Details: temperature: 34 °C; time window: 0-4 h after rhamnose induction
# 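Note: Bxb1 expression induced with 0.2% (w/v) L-rhamnose at OD600 near 0.5, cultures sampled hourly, flipped fraction per protease–substrate barcode pair counted by paired-end Illumina sequencing.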
Variant,area with substrate ENLYCQS,area with substrate ENLYEQS,area with substrate ENLYGQS,area with substrate ENLYHQS,area with substrate ENLYIQS,area with substrate ENLYKQS,area with substrate ENLYMQS,area with substrate ENLYNQS,area with substrate ENLYRQS,area with substrate ENLYSQS,area with substrate ENLYVQS,area with substrate ENLYWQS,area with substrate ENLYYQS,area with substrate ENLYQQS,area with substrate ENLYTQS,area with substrate ENLYDQS,area with substrate ENLYLQS,area with substrate ENLYPQS
D79H,0.0818,0.0613,0.0655,0.0568,0.107,0.0548,0.0688,0.0596,0.0593,0.0314,0.133,0.107,0.0602,,,,,
T129F,0.087,0.0732,,0.0663,,0.0675,,0.0647,0.0575,0.055,0.0756,0.0693,,0.0701,,,,
K100F,0.0961,0.0417,,0.0611,0.113,0.0987,,0.0581,,,0.106,0.0812,0.0626,,0.0855,,,
K100H,0.0782,0.0479,0.07,0.067,,0.0613,0.0806,,0.0606,,0.113,0.0792,0.0409,0.0535,0.0804,0.0486,0.083,
Q198C,,0.0682,0.0596,,,0.0589,0.0818,0.0684,0.0533,0.066,0.102,0.073,,0.0568,0.0818,0.0609,0.0648,0.0667
D69T,0.0744,0.0557,0.0491,0.0679,,0.0623,0.0855,0.0688,,0.0783,0.117,0.0705,0.074,,0.0591,0.0593,0.0652,0.0741
D69N,0.0838,,0.0595,0.067,,0.0593,0.099,0.0659,0.0723,0.0872,,,,0.06,0.0654,0.0205,0.0829,
T115E,0.0828,0.0703,,0.0603,0.14,0.087,,0.0707,0.0506,,,,,,,0.0366,,0.0794
I110S,0.0603,0.0538,0.0613,0.0503,0.0694,0.0352,0.0369,0.053,0.061,0.0496,0.0598,,0.0473,0.0646,0.0674,0.0559,,0.0663
T71P,,0.0658,,0.0453,,0.052,,0.0855,,,0.0932,0.0798,0.0633,,,0.0459,,0.0546
G39N,,0.0448,0.0354,0.0368,,0.0427,0.0467,,0.0297,,0.0355,,,,,0.035,,0.0376
R51F,0.0966,0.0681,0.0861,0.0739,0.163,0.0413,0.0763,0.0681,0.064,0.0712,0.129,0.119,0.0735,,,0.0714,,0.0601
S124I,0.0869,0.066,0.0714,0.0664,0.101,,,0.0675,0.0852,,0.0495,0.0852,,0.0598,0.107,,,0.0735
S130D,0.0809,0.0607,0.067,0.0724,,0.0576,0.11,0.0712,0.0618,,0.0747,,0.0643,0.051,,,,0.0741
Q194L,,0.0257,0.089,0.0664,0.117,0.0593,0.0766,0.0644,,0.0797,,0.0792,0.0659,0.0628,,0.0495,0.0832,0.0667
D11G,0.0889,0.0555,0.0719,0.059,,0.0662,0.0845,0.068,0.0586,0.074,0.126,0.0797,,0.0668,0.0629,0.0663,0.0781,
N52D,0.0674,0.0604,0.0618,0.0636,,0.0568,0.0621,,,0.0474,0.0955,0.062,,,,0.0643,,0.0617
G213L,,,0.0765,0.0704,0.0675,0.0613,0.0537,0.065,0.0522,,0.0678,,,,,0.0793,,
H62S,0.0806,0.0731,0.0781,0.0619,,0.0832,0.0771,0.0895,0.045,0.0631,,,0.0581,,,,,0.0751
H62R,,0.0637,0.0668,0.0672,,0.0586,0.0977,0.0682,0.0546,,0.136,,,0.0536,,0.0553,0.0878,0.0586
K230I,0.0857,0.0648,0.0667,0.0661,,0.0608,0.0708,0.076,0.0608,0.0831,,0.0816,,0.0687,0.073,0.0635,,
G35W,0.045,0.0324,0.0442,,0.0447,0.0617,0.0435,0.0559,0.0469,,0.0459,,,,0.0507,,,0.053
G138N,,0.0559,0.0598,,,0.0668,0.0666,,0.0571,0.0543,0.153,,,,,0.0575,,0.0819
T147P,,0.0717,0.0674,0.0595,0.0698,0.0415,,0.0587,0.0863,0.0582,0.0356,0.066,0.0708,0.0611,,0.0617,,0.0743
L33W,,0.0594,0.0585,0.052,,0.0568,0.0583,0.0581,0.0623,0.0626,0.0565,0.0511,0.0498,0.0616,0.0606,0.0625,0.0624,0.0559
E103H,,0.0373,0.0723,0.0645,,0.0573,,0.0714,,0.072,,0.0678,,0.0518,0.084,0.0644,,0.0709
R109E,,0.05,,0.0703,0.0902,0.0519,,,,0.0906,0.0886,0.0567,,,0.0733,0.0536,,0.0803
P89H,0.0669,0.0575,,0.0651,0.0865,,0.0803,,,0.0232,,,,0.0711,,0.0521,,0.0663
S127M,,0.0837,0.0693,0.073,,0.0502,0.0867,0.0695,0.0492,0.0614,0.142,,,0.0478,,0.0671,,0.0769
